SMILES strings stand for the structures. About 4,300 (8.3%) of roughly 52,000 compounds were called active. Cut-off read from the data, not from the text of the source: active = survival mostly below about 52% (no sharp cut-off); inactive = mostly above about 56%. Some of the results follow.

This test deals with DeltatarO mutant. Nature of the test: growth inhibition of S. aureus wild type versus tarO mutant, primary screen, teichoic acid synthesis inhibitors, RN4220, OD600 (AID 463173). The note with it: OD600, 18 h, hits give low values, screened at 18.75 µg/mL (by protocol).
With `CCC(C(=O)Nc1cc(-c2nc3cccnc3s2)ccc1C)c1ccccc1` (centres undefined), the survival was active: 37%. `O=C(Cn1c(SCC(=O)Nc2nccs2)nc2ccccc21)NCc1ccccc1`: the survival was inactive: 78%. Under `CC(=O)c1ccc(N2CCN(S(=O)(=O)c3ccc4[nH]c5c(c4c3)CCCC5)CC2)cc1` stands inactive: 64%; under `O=c1c2c(-c3ccc(Cl)cc3)ccnc2[nH]n1-c1ccccc1`, inactive: 67%; under `O=C(NCCC1=CCCCC1)c1ccc2c(c1)ncn2-c1ccc(F)c(F)c1`, inactive: 66%. `COc1ccc(OC)c(C2c3c(oc4ccc(C)cc4c3=O)C(=O)N2CCCN(C)C)c1` (centres undefined): the survival is inactive: 73%. On to `CCc1ccc(Nc2nc(N)nc(CSc3nc4ccccc4s3)n2)cc1`, for which the survival was active: 21%.

As for `CCN(Cc1ccccc1)Cc1c(O)ccc2c(=O)c(-c3ccccc3Cl)c(C(F)(F)F)oc12`, the survival is inactive: 74%. Under `CC(=O)Nc1cccc(NC(=O)c2c(-c3ccccc3)c(-c3ccccc3)nn(C)c2=O)c1` stands inactive: 53%; under `CCCN(CCC)C(=O)CSc1nc2sc3c(c2c(=O)n1-c1ccccc1)CCN(C(C)=O)C3`, inactive: 178%.

Turning to `CCc1ccccc1NS(=O)(=O)c1ccc2c(c1)OCC(C(=O)N1CCCC1)O2` (centres undefined), the survival was inactive: 74%. Under `CCOCc1cc(CN2CCN(c3cccc(Cl)c3)CC2)c(O)c2ncccc12` stands inactive: 55%. Under `O=C(CCC1CCCC1)N1CCN(C(=O)Cc2ccccc2)CC1` stands inactive: 94%; under `CCOc1ccc(CNC(=O)c2ccc(Sc3ccc(Cl)cc3)c(NC(C)=O)c2)cc1OC`, inactive: 80%; under `COc1ccc2oc(=O)c(C(N)=O)cc2c1`, inactive: 88%. Under `CCS(=O)(=O)c1nc(S(=O)(=O)c2ccc(Cl)cc2)c(NCc2ccccc2Cl)s1` stands inactive: 69%. With `O=C(NC1CCCC1)C(c1ccc(O)cc1)N(C(=O)Cn1nnc(-c2cccs2)n1)C1CCCC1` (centres undefined), the survival was inactive: 97%. Under `Cc1ccccc1-c1nc2cc(NC(=O)COc3ccc(F)cc3)ccc2o1` stands inactive: 56%. Under `CC1=C(C(=O)Nc2ccc(C)cc2C)C(c2ccccc2)n2ncc(C(=O)Nc3ccccc3)c2N1` (centres undefined) stands inactive: 58%. Under `CCOC(=O)c1c(-c2ccccc2)csc1NC(=O)c1cc(-c2ccc(Cl)cc2)on1` stands inactive: 67%; under `Cc1c(CC(=O)NCCc2ccc(Cl)cc2)c(=O)oc2c(C)c3occ(C(C)(C)C)c3cc12`, inactive: 60%. For the compound `Cc1ccc(NC(=O)C2CCCN(S(=O)(=O)c3cccc4cccnc34)C2)c(C)c1` (centres undefined), the survival is inactive: 78%.

Turning to `COC(=O)c1ccc2c(=O)n(CCCCCC(=O)N3CCN(c4ccc(OC)cc4)CC3)c(=O)[nH]c2c1`, the survival is inactive: 55%. Under `CCOC(=O)c1sc(NC(=O)c2cc(-c3ccc(F)cc3)on2)c(C(=O)OCC)c1C` stands inactive: 65%.
